Test results reported in the antibiotic and cytotoxicity screens of Wong et al. (2023).
The list shows a part of the results.

Tests used:
[1] = tested on: HSkMC (human skeletal muscle cells); experiment: cytotoxicity call (relative viability < 0.9); details: 10 µM
[2] = tested on: HepG2; experiment: cytotoxicity call (relative viability < 0.9); details: 10 µM
[3] = tested on: S. aureus RN4220; experiment: growth inhibition call (relative growth <= 0.2); details: 50 µM

Compound	cytotoxicity call [1]	cytotoxicity call [2]	growth inhibition call [3]
C=CCN1C(=O)[C@]2(O[C@H](CCn3cc([C@H](O)c4ccccc4)nn3)[C@@H]([Si](C)(C)c3ccc(OC)cc3)[C@@H]2C)c2ccccc21	inactive	inactive	inactive
COc1ccc(S(=O)(=O)N2C[C@@H](O)COC[C@H]3O[C@@H](CC(=O)N[C@@H]4CCN(Cc5ccccc5)C4)CC[C@@H]32)cc1	inactive	inactive	inactive
C[C@@H]1CN([C@H](C)CO)C(=O)c2cccc(NC(=O)Nc3ccc4c(c3)OCO4)c2O[C@H]1CN(C)Cc1ccc(C(=O)Nc2ccccc2N)cc1	inactive	inactive	inactive
C[C@H]1CN([C@@H](C)CO)C(=O)c2cc(C#CCN(C)C)cnc2O[C@H]1CN(C)C(=O)CN1CCOCC1	inactive	inactive	inactive
COc1ccc(NC(=O)Nc2ccc3c(c2)CC(=O)N([C@@H](C)CO)C[C@H](C)[C@H](CN(C)C(=O)Nc2ccc(C(F)(F)F)cc2)O3)cc1	inactive	active	inactive
NNS(=O)(=O)c1ccc(Oc2ccc(S(=O)(=O)NN)cc2)cc1	inactive	active	inactive
C[C@H]1CN([C@@H](C)CO)C(=O)Cc2cc(NC(=O)CCCN(C)C)ccc2O[C@H]1CN(C)S(=O)(=O)c1ccc(F)cc1	inactive	inactive	inactive
O=c1[nH]cnc2c1ncn2C1OC(CO)C(O)C1O (configuration not stated)	inactive	inactive	inactive
COc1ccc(NC(=O)N(C)C[C@@H]2OCCCC[C@@H](C)Oc3ccc(NC(=O)NC(C)C)cc3C(=O)N([C@H](C)CO)C[C@H]2C)cc1	inactive	inactive	inactive
